This is one part of the list. Binding of human transcription factors and regulators to the viral nucleoprotein by AlphaScreen, crude cell-free proteins, amounts not normalised, one pass. Fold of the Venus control; higher = more signal. No active / inactive call. Single-pass screen; sequences are the whole Swiss-Prot entries looked up by name.
B1: HSF4, Q9ULV5 (protein)
chain: MQEAPAALPTEPGPSPVPAFLGKLWALVGDPGTDHLIRWSPSGTSFLVSDQSRFAKEVLPQYFKHSNMASFVRQLNMYGFRKVVSIEQGGLLRPERDHVEFQHPSFVRGREQLLERVRRKVPALRGDDGRWRPEDLGRLLGEVQALRGVQESTEARLRELRQQNEILWREVVTLRQSHGQQHRVIGKLIQCLFGPLQAGPSNAGGKRKLSLMLDEGSSCPTPAKFNTCPLPGALLQDPYFIQSPLPETNLGLSPHRARGPIISDIPEDSPSPEGTRLSPSSDGRREKGLALLKEEPASPGGDGEAGLALAPNECDFCVTAPPPLPVAVVQAILEGKGSFSPEGPRNAQQPEPGDPREIPDRGPLGLESGDRSPESLLPPMLLQPPQESVEPAGPLDVLGPSLQGREWTLMDLDMELSLMQPLVPERGEPELAVKGLNSPSPGKDPTLGAPLLLDVQAALGGPALGLPGALTIYSTPESRTASYLGPEASPSP
B2: SIN3A, Q96ST3 (protein)
chain: MKRRLDDQESPVYAAQQRRIPGSTEAFPHQHRVLAPAPPVYEAVSETMQSATGIQYSVTPSYQVSAMPQSSGSHGPAIAAVHSSHHHPTAVQPHGGQVVQSHAHPAPPVAPVQGQQQFQRLKVEDALSYLDQVKLQFGSQPQVYNDFLDIMKEFKSQSIDTPGVISRVSQLFKGHPDLIMGFNTFLPPGYKIEVQTNDMVNVTTPGQVHQIPTHGIQPQPQPPPQHPSQPSAQSAPAPAQPAPQPPPAKVSKPSQLQAHTPASQQTPPLPPYASPRSPPVQPHTPVTISLGTAPSLQNNQPVEFNHAINYVNKIKNRFQGQPDIYKAFLEILHTYQKEQRNAKEAGGNYTPALTEQEVYAQVARLFKNQEDLLSEFGQFLPDANSSVLLSKTTAEKVDSVRNDHGGTVKKPQLNNKPQRPSQNGCQIRRHPTGTTPPVKKKPKLLNLKDSSMADASKHGGGTESLFFDKVRKALRSAEAYENFLRCLVIFNQEVISRAELVQLVSPFLGKFPELFNWFKNFLGYKESVHLETYPKERATEGIAMEIDYASCKRLGSSYRALPKSYQQPKCTGRTPLCKEVLNDTWVSFPSWSEDSTFVSSKKTQYEEHIYRCEDERFELDVVLETNLATIRVLEAIQKKLSRLSAEEQAKFRLDNTLGGTSEVIHRKALQRIYADKAADIIDGLRKNPSIAVPIVLKRLKMKEEEWREAQRGFNKVWREQNEKYYLKSLDHQGINFKQNDTKVLRSKSLLNEIESIYDERQEQATEENAGVPVGPHLSLAYEDKQILEDAAALIIHHVKRQTGIQKEDKYKIKQIMHHFIPDLLFAQRGDLSDVEEEEEEEMDVDEATGAVKKHNGVGGSPPKSKLLFSNTAAQKLRGMDEVYNLFYVNNNWYIFMRLHQILCLRLLRICSQAERQIEEENREREWEREVLGIKRDKSDSPAIQLRLKEPMDVDVEDYYPAFLDMVRSLLDGNIDSSQYEDSLREMFTIHAYIAFTMDKLIQSIVRQLQHIVSDEICVQVTDLYLAENNNGATGGQLNTQNSRSLLESTYQRKAEQLMSDENCFKLMFIQSQGQVQLTIELLDTEEENSDDPVEAERWSDYVERYMNSDTTSPELREHLAQKPVFLPRNLRRIRKCQRGREQQEKEGKEGNSKKTMENVDSLDKLECRFKLNSYKMVYVIKSEDYMYRRTALLRAHQSHERVSKRLHQRFQAWVDKWTKEHVPREMAAETSKWLMGEGLEGLVPCTTTCDTETLHFVSINKYRVKYGTVFKAP
B3: NFYB, P25208 (protein)
chain: MTMDGDSSTTDASQLGISADYIGGSHYVIQPHDDTEDSMNDHEDTNGSKESFREQDIYLPIANVARIMKNAIPQTGKIAKDAKECVQECVSEFISFITSEASERCHQEKRKTINGEDILFAMSTLGFDSYVEPLKLYLQKFREAMKGEKGIGGAVTATDGLSEELTEEAFTNQLPAGLITTDGQQQNVMVYTTSYQQISGVQQIQFS
B4: CEBPA, P49715 (protein)
chain: MESADFYEAEPRPPMSSHLQSPPHAPSSAAFGFPRGAGPAQPPAPPAAPEPLGGICEHETSIDISAYIDPAAFNDEFLADLFQHSRQQEKAKAAVGPTGGGGGGDFDYPGAPAGPGGAVMPGGAHGPPPGYGCAAAGYLDGRLEPLYERVGAPALRPLVIKQEPREEDEAKQLALAGLFPYQPPPPPPPSHPHPHPPPAHLAAPHLQFQIAHCGQTTMHLQPGHPTPPPTPVPSPHPAPALGAAGLPGPGSALKGLGAAHPDLRASGGSGAGKAKKSVDKNSNEYRVRRERNNIAVRKSRDKAKQRNVETQQKVLELTSDNDRLRKRVEQLSRELDTLRGIFRQLPESSLVKAMGNCA
B5: DDRGK1, Q96HY6 (protein)
chain: MVAPVWYLVAAALLVGFILFLTRSRGRAASAGQEPLHNEELAGAGRVAQPGPLEPEEPRAGGRPRRRRDLGSRLQAQRRAQRVAWAEADENEEEAVILAQEEEGVEKPAETHLSGKIGAKKLRKLEEKQARKAQREAEEAEREERKRLESQREAEWKKEEERLRLEEEQKEEEERKAREEQAQREHEEYLKLKEAFVVEEEGVGETMTEEQSQSFLTEFINYIKQSKVVLLEDLASQVGLRTQDTINRIQDLLAEGTITGVIDDRGKFIYITPEELAAVANFIRQRGRVSIAELAQASNSLIAWGRESPAQAPA
B6: CGGBP1, Q9UFW8 (protein)
chain: MERFVVTAPPARNRSKTALYVTPLDRVTEFGGELHEDGGKLFCTSCNVVLNHVRKSAISDHLKSKTHTKRKAEFEEQNVRKKQRPLTASLQCNSTAQTEKVSVIQDFVKMCLEANIPLEKADHPAVRAFLSRHVKNGGSIPKSDQLRRAYLPDGYENENQLLNSQDC
B7: GLI3, P10071 (protein)
chain: MEAQSHSSTTTEKKKVENSIVKCSTRTDVSEKAVASSTTSNEDESPGQTYHRERRNAITMQPQNVQGLSKVSEEPSTSSDERASLIKKEIHGSLPHVAEPSVPYRGTVFAMDPRNGYMEPHYHPPHLFPAFHPPVPIDARHHEGRYHYDPSPIPPLHMTSALSSSPTYPDLPFIRISPHRNPTAASESPFSPPHPYINPYMDYIRSLHSSPSLSMISATRGLSPTDAPHAGVSPAEYYHQMALLTGQRSPYADIIPSAATAGTGAIHMEYLHAMDSTRFSSPRLSARPSRKRTLSISPLSDHSFDLQTMIRTSPNSLVTILNNSRSSSSASGSYGHLSASAISPALSFTYSSAPVSLHMHQQILSRQQSLGSAFGHSPPLIHPAPTFPTQRPIPGIPTVLNPVQVSSGPSESSQNKPTSESAVSSTGDPMHNKRSKIKPDEDLPSPGARGQQEQPEGTTLVKEEGDKDESKQEPEVIYETNCHWEGCAREFDTQEQLVHHINNDHIHGEKKEFVCRWLDCSREQKPFKAQYMLVVHMRRHTGEKPHKCTFEGCTKAYSRLENLKTHLRSHTGEKPYVCEHEGCNKAFSNASDRAKHQNRTHSNEKPYVCKIPGCTKRYTDPSSLRKHVKTVHGPEAHVTKKQRGDIHPRPPPPRDSGSHSQSRSPGRPTQGALGEQQDLSNTTSKREECLQVKTVKAEKPMTSQPSPGGQSSCSSQQSPISNYSNSGLELPLTDGGSIGDLSAIDETPIMDSTISTATTALALQARRNPAGTKWMEHVKLERLKQVNGMFPRLNPILPPKAPAVSPLIGNGTQSNNTCSLGGPMTLLPGRSDLSGVDVTMLNMLNRRDSSASTISSAYLSSRRSSGISPCFSSRRSSEASQAEGRPQNVSVADSYDPISTDASRRSSEASQSDGLPSLLSLTPAQQYRLKAKYAAATGGPPPTPLPNMERMSLKTRLALLGDALEPGVALPPVHAPRRCSDGGAHGYGRRHLQPHDAPGHGVRRASDPVRTGSEGLALPRVPRFSSLSSCNPPAMATSAEKRSLVLQNYTRPEGGQSRNFHSSPCPPSITENVTLESLTMDADANLNDEDFLPDDVVQYLNSQNQAGYEQHFPSALPDDSKVPHGPGDFDAPGLPDSHAGQQFHALEQPCPEGSKTDLPIQWNEVSSGSADLSSSKLKCGPRPAVPQTRAFGFCNGMVVHPQNPLRSGPAGGYQTLGENSNPYGGPEHLMLHNSPGSGTSGNAFHEQPCKAPQYGNCLNRQPVAPGALDGACGAGIQASKLKSTPMQGSGGQLNFGLPVAPNESAGSMVNGMQNQDPVGQGYLAHQLLGDSMQHPGAGRPGQQMLGQISATSHINIYQGPESCLPGAHGMGSQPSSLAVVRGYQPCASFGGSRRQAMPRDSLALQSGQLSDTSQTCRVNGIKMEMKGQPHPLCSNLQNYSGQFYDQTVGFSQQDTKAGSFSISDASCLLQGTSAKNSELLSPGANQVTSTVDSLDSHDLEGVQIDFDAIIDDGDHSSLMSGALSPSIIQNLSHSSSRLTTPRASLPFPALSMSTTNMAIGDMSSLLTSLAEESKFLAVMQ
B8: DEAF1, O75398 (protein)
chain: MEDSDSAAKQLGLAEAAAVAAAAAVAAAAAAAAGGEAEEPVLSRDEDSEEDADSEAERETPRVTAVAVMAAEPGHMDMGAEALPGPDEAAAAAAFAEVTTVTVANVGAAADNVFTTSVANAASISGHVLSGRTALQIGDSLNTEKATLIVVHTDGSIVETTGLKGPAAPLTPGPQSPPTPLAPGQEKGGTKYNWDPSVYDSELPVRCRNISGTLYKNRLGSGGRGRCIKQGENWYSPTEFEAMAGRASSKDWKRSIRYAGRPLQCLIQDGILNPHAASCTCAACCDDMTLSGPVRLFVPYKRRKKENELPTTPVKKDSPKNITLLPATAATTFTVTPSGQITTSGALTFDRASTVEATAVISESPAQGDVFAGATVQEASVQPPCRASHPEPHYPGYQDSCQIAPFPEAALPTSHPKIVLTSLPALAVPPPTPTKAAPPALVNGLELSEPRSWLYLEEMVNSLLNTAQQLKTLFEQAKHASTYREAATNQAKIHADAERKEQSCVNCGREAMSECTGCHKVNYCSTFCQRKDWKDHQHICGQSAAVTVQADEVHVAESVMEKVTV

Target: nucleoprotein N of Crimean-Congo hemorrhagic fever virus
Test: AlphaScreen luminescence signal relative to Venus negative control (fold); higher = stronger binding to CCHFV N
Experimental: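 AlphaScreen binding of cell-free made, FLAG-GST-tagged human transcription factors and regulators (crude translation products) to biotinylated N protein; signal as fold of the FLAG-GST-Venus control. One pass.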

Binder | AlphaScreen luminescence signal
B1 | 2.84
B2 | 1.4
B3 | 1.63
B4 | 1.02
B5 | 6.7
B6 | 2.6
B7 | 1.67
B8 | 2.74
